Results are given in words; binding and its absence hold for the method and conditions named. Binding seen in cells or lysates may run through a third protein. Some entries that bind do so weakly or less than the wild type.
Tests used:
[1] = biological target: UPF1 (mouse (endogenous in round spermatids)) (UniProt Q9EPU0); test: co-IP; lysate (RIPA, diluted in IP buffer: 50 mM Tris-HCl pH 7.4, 150 mM NaCl, 0.25% Triton-X100, 1 mM EDTA) of round spermatids fixed in 1% PFA, from Tdrd6^+/- mice (Tdrd6^-/- in parallel); antibodies to MVH, TDRD6, UPF1 or UPF2 coupled to Dynabeads; with or without RNAse A; immunoblot
[2] = biological target: T1, UPF2 (mouse (endogenous in round spermatids)) (UniProt A2AT37); test: as above
T1 sequence: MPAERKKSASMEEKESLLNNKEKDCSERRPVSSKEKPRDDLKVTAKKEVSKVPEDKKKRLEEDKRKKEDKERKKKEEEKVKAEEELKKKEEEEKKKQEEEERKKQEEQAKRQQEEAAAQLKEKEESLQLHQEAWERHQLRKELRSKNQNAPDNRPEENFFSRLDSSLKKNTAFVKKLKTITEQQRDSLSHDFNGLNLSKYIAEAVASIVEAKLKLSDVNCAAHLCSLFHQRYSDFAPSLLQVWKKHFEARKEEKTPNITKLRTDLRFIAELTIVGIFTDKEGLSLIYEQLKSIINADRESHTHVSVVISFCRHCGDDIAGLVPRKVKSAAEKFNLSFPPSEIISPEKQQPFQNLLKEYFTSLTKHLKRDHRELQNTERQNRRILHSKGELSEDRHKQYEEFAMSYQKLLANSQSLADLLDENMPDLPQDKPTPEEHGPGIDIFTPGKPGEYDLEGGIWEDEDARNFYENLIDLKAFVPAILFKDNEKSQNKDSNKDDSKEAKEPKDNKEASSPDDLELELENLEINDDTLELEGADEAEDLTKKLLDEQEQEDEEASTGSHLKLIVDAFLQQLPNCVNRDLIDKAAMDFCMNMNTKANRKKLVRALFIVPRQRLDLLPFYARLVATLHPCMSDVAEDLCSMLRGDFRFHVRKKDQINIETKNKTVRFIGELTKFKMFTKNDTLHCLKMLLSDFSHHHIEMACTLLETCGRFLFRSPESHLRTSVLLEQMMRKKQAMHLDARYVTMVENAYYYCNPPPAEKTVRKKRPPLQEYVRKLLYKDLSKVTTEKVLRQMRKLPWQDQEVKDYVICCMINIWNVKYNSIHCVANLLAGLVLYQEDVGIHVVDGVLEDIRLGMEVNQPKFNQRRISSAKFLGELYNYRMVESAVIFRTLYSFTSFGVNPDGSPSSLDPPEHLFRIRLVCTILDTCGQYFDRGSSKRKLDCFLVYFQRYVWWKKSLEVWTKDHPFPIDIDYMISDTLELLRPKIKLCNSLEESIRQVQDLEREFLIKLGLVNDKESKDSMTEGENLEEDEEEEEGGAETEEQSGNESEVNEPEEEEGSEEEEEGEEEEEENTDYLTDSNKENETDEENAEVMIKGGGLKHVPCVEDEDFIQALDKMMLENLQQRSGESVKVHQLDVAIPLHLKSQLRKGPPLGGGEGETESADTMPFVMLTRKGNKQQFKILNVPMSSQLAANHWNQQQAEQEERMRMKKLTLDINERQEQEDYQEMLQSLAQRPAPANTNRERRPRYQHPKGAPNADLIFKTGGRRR

By UniProt entry, the sequences of proteins in these tests, tags left out.
UniProt Q9EPU0: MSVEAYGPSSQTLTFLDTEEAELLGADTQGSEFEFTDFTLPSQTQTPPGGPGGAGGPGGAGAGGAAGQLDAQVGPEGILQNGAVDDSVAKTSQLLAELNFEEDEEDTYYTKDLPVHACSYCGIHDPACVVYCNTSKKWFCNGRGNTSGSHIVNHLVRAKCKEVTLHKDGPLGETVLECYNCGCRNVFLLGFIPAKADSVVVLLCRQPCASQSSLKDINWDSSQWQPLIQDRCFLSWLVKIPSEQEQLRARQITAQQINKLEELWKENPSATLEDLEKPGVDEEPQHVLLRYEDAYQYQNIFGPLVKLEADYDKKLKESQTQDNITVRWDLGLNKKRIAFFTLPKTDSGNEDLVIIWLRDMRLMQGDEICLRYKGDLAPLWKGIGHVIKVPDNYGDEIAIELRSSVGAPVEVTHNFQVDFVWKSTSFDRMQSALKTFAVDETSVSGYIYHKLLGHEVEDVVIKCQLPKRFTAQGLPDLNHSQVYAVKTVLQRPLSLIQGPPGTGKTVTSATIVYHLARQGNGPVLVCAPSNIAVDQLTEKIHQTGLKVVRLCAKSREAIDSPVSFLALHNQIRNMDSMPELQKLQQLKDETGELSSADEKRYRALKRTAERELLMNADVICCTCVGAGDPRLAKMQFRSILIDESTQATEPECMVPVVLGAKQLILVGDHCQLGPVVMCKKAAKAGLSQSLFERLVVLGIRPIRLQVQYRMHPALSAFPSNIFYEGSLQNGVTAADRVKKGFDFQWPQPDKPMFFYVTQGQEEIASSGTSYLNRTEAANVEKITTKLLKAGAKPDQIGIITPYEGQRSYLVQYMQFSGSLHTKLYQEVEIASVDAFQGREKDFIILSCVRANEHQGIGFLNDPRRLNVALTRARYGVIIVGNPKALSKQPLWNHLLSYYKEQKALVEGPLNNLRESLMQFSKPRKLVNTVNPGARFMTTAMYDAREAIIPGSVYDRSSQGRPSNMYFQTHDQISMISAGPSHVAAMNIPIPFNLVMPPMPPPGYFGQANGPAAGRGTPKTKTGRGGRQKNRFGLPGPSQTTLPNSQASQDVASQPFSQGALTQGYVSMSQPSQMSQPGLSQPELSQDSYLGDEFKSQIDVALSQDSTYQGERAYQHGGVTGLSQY
UniProt P61407: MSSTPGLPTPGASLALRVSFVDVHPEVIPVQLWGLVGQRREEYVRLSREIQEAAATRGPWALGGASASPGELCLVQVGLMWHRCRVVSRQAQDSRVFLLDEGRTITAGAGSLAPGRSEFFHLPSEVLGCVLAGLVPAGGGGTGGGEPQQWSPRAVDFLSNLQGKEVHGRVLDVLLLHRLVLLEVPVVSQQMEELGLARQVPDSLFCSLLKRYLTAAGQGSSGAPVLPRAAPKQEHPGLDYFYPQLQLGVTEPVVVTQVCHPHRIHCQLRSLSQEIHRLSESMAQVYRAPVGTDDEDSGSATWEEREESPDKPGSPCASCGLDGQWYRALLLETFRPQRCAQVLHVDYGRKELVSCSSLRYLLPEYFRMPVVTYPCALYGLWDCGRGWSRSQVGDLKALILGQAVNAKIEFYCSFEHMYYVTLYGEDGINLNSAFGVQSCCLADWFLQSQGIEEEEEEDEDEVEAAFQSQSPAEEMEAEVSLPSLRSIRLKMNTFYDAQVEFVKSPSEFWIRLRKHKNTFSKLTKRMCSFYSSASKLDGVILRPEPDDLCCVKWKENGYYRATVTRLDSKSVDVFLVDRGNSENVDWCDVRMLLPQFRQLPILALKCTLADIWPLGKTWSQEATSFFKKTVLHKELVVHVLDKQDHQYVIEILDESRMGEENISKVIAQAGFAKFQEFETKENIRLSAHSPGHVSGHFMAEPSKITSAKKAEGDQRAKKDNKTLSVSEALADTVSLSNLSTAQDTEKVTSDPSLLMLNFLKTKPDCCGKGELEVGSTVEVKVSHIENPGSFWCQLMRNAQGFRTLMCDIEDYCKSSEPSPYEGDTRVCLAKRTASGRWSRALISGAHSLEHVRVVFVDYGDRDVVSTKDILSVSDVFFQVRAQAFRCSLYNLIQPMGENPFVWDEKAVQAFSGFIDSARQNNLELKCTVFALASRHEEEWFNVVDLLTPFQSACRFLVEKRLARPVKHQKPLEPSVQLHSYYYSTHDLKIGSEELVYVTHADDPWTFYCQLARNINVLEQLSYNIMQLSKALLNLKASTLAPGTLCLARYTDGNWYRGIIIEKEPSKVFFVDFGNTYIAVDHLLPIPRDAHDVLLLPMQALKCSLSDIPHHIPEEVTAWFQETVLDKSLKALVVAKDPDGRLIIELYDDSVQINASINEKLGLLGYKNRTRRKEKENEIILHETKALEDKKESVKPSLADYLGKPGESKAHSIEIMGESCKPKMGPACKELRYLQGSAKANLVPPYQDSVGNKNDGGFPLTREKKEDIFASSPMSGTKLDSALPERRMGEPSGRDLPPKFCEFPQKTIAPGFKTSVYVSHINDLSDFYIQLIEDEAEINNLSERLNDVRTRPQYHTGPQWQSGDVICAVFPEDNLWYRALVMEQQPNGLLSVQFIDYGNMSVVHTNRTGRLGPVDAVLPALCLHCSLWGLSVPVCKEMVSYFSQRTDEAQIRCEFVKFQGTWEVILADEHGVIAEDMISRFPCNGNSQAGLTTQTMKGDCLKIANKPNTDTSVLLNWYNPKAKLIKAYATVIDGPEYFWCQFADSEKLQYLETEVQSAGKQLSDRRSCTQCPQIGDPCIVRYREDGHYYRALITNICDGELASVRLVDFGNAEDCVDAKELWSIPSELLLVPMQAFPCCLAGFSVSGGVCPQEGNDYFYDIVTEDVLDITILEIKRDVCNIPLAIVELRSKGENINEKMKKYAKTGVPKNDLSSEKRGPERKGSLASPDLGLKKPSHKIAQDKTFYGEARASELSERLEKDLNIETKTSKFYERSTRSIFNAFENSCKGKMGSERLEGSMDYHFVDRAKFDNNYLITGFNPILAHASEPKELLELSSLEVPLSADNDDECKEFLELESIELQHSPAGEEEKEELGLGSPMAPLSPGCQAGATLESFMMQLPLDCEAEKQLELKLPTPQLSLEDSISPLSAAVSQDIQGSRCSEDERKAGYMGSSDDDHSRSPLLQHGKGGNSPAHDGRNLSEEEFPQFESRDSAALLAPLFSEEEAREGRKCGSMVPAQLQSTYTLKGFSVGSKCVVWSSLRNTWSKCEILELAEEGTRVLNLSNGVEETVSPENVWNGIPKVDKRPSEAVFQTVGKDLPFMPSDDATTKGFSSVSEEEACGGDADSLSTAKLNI

[3] = biological target: T2, MVH(DDX4) (mouse (endogenous in round spermatids)) (UniProt Q61496); test: as above
T2 sequence: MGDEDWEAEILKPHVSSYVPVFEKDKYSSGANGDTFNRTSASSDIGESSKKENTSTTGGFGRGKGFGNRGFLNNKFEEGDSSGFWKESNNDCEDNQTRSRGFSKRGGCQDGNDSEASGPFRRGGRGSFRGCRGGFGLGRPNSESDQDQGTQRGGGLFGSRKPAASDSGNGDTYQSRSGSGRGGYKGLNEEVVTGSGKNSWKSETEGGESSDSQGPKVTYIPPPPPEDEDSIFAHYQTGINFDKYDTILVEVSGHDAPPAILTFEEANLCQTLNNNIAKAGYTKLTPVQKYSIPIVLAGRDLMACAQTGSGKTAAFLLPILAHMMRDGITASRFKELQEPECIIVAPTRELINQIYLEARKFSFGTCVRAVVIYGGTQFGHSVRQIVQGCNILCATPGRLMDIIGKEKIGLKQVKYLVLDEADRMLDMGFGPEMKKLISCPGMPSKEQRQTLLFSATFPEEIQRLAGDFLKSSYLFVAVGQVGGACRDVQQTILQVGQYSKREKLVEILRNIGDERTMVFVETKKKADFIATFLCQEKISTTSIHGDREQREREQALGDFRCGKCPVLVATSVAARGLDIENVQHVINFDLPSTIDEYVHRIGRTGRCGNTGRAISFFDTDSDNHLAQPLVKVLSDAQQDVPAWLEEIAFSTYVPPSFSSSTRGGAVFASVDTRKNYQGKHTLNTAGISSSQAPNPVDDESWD

[4] = biological target: Tudor-domain containing protein 6 (TDRD6) (mouse (endogenous in round spermatids)) (UniProt P61407); test: as above
[5] = biological target: T1, UPF2 (mouse (endogenous in round spermatids)); test: co-IP; as a1, lysate of round spermatids from Tdrd6^-/- mice (no TDRD6)
[6] = biological target: UPF1 (mouse (endogenous in round spermatids)) (UniProt Q9EPU0); test: as above
[7] = biological target: UPF1 (mouse (endogenous in round spermatids)) (UniProt Q9EPU0); test: as above; remark: listed apart in the source

Question: “Tudor-domain containing protein 6 (TDRD6) (from UniProt P61407 1-2134)” was tested. Which binding [1] did it give?
Answer: binds

Question: And the binding [2]?
Answer: binds

Question: And the binding [3]?
Answer: binds

Question: UPF1 (from UniProt Q9EPU0 1-1124) was tested. Which binding [4] did it give?
Answer: binds

Question: And the binding [5]?
Answer: binds weakly

B1: UPF2 (protein, UniProt A2AT37 1-1269)
chain: MPAERKKSASMEEKESLLNNKEKDCSERRPVSSKEKPRDDLKVTAKKEVSKVPEDKKKRLEEDKRKKEDKERKKKEEEKVKAEEELKKKEEEEKKKQEEEERKKQEEQAKRQQEEAAAQLKEKEESLQLHQEAWERHQLRKELRSKNQNAPDNRPEENFFSRLDSSLKKNTAFVKKLKTITEQQRDSLSHDFNGLNLSKYIAEAVASIVEAKLKLSDVNCAAHLCSLFHQRYSDFAPSLLQVWKKHFEARKEEKTPNITKLRTDLRFIAELTIVGIFTDKEGLSLIYEQLKSIINADRESHTHVSVVISFCRHCGDDIAGLVPRKVKSAAEKFNLSFPPSEIISPEKQQPFQNLLKEYFTSLTKHLKRDHRELQNTERQNRRILHSKGELSEDRHKQYEEFAMSYQKLLANSQSLADLLDENMPDLPQDKPTPEEHGPGIDIFTPGKPGEYDLEGGIWEDEDARNFYENLIDLKAFVPAILFKDNEKSQNKDSNKDDSKEAKEPKDNKEASSPDDLELELENLEINDDTLELEGADEAEDLTKKLLDEQEQEDEEASTGSHLKLIVDAFLQQLPNCVNRDLIDKAAMDFCMNMNTKANRKKLVRALFIVPRQRLDLLPFYARLVATLHPCMSDVAEDLCSMLRGDFRFHVRKKDQINIETKNKTVRFIGELTKFKMFTKNDTLHCLKMLLSDFSHHHIEMACTLLETCGRFLFRSPESHLRTSVLLEQMMRKKQAMHLDARYVTMVENAYYYCNPPPAEKTVRKKRPPLQEYVRKLLYKDLSKVTTEKVLRQMRKLPWQDQEVKDYVICCMINIWNVKYNSIHCVANLLAGLVLYQEDVGIHVVDGVLEDIRLGMEVNQPKFNQRRISSAKFLGELYNYRMVESAVIFRTLYSFTSFGVNPDGSPSSLDPPEHLFRIRLVCTILDTCGQYFDRGSSKRKLDCFLVYFQRYVWWKKSLEVWTKDHPFPIDIDYMISDTLELLRPKIKLCNSLEESIRQVQDLEREFLIKLGLVNDKESKDSMTEGENLEEDEEEEEGGAETEEQSGNESEVNEPEEEEGSEEEEEGEEEEEENTDYLTDSNKENETDEENAEVMIKGGGLKHVPCVEDEDFIQALDKMMLENLQQRSGESVKVHQLDVAIPLHLKSQLRKGPPLGGGEGETESADTMPFVMLTRKGNKQQFKILNVPMSSQLAANHWNQQQAEQEERMRMKKLTLDINERQEQEDYQEMLQSLAQRPAPANTNRERRPRYQHPKGAPNADLIFKTGGRRR
Question: What does the source list for B1?
Answer: binding [3]: binds; binding [4]: binds; binding [6]: no binding (condition: Tdrd6^-/- spermatids (no TDRD6)); binding [7]: binds weakly

B2: MVH(DDX4) (protein, UniProt Q61496 1-702)
chain: MGDEDWEAEILKPHVSSYVPVFEKDKYSSGANGDTFNRTSASSDIGESSKKENTSTTGGFGRGKGFGNRGFLNNKFEEGDSSGFWKESNNDCEDNQTRSRGFSKRGGCQDGNDSEASGPFRRGGRGSFRGCRGGFGLGRPNSESDQDQGTQRGGGLFGSRKPAASDSGNGDTYQSRSGSGRGGYKGLNEEVVTGSGKNSWKSETEGGESSDSQGPKVTYIPPPPPEDEDSIFAHYQTGINFDKYDTILVEVSGHDAPPAILTFEEANLCQTLNNNIAKAGYTKLTPVQKYSIPIVLAGRDLMACAQTGSGKTAAFLLPILAHMMRDGITASRFKELQEPECIIVAPTRELINQIYLEARKFSFGTCVRAVVIYGGTQFGHSVRQIVQGCNILCATPGRLMDIIGKEKIGLKQVKYLVLDEADRMLDMGFGPEMKKLISCPGMPSKEQRQTLLFSATFPEEIQRLAGDFLKSSYLFVAVGQVGGACRDVQQTILQVGQYSKREKLVEILRNIGDERTMVFVETKKKADFIATFLCQEKISTTSIHGDREQREREQALGDFRCGKCPVLVATSVAARGLDIENVQHVINFDLPSTIDEYVHRIGRTGRCGNTGRAISFFDTDSDNHLAQPLVKVLSDAQQDVPAWLEEIAFSTYVPPSFSSSTRGGAVFASVDTRKNYQGKHTLNTAGISSSQAPNPVDDESWD
Question: With B2 as the molecule, how does the binding [2] read?
Answer: binds

Question: And the binding [4]?
Answer: binds
